Measured values: the supplement of paper PMC12217912
Some of the results follow. Sequences were assembled here from the parent chain. Values near 0.05 are background.

B1: TEV protease; numbered along this chain (parent)
chain: MGESLFKGPRDYNPISSSICHLTNESDGHTTSLYGIGFGPFIITNKHLFRRNNGTLVVQSLHGVFKVKDTTTLQQHLVDGRDMIIIRMPKDFPPFPQKLKFREPQREERICLVTTNFQTKSMSSMVSDTSCTFPSGDGIFWKHWIQTKDGQCGSPLVSTRDGFIVGIHSASNFTNTNNYFTSVPKNFMELLTNQEAQQWVSGWRLNADSVLWGGHKVFMVKPEEPFQPVKEATQL

Variants of: B1
Assay: raw area under fraction-flipped curve 0-4 h after induction (AUC4h, not background-subtracted), DNA-recorder readout of cleavage of the substrate (dimensionless); higher = more cleavage of the substrate by the protease variant
Conditions: temperature: 34 °C; time window: 0-4 h after rhamnose induction
Experimental: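 In vivo DNA recorder in E. coli TOP10(DE3) ΔrhaA at 34 °C. Each TEVp single-site mutant (parent TEVp 0) is paired with a single-site variant of the 7-mer TEVs (canonical ENLYFQ|S). The substrate sits between flexible linkers in a Bxb1-sfGFP-TEVs-SsrA fusion, so cleavage stabilises Bxb1 and speeds flipping of a recombination array, read by NGS. The value is the raw area under the fraction-flipped curve over 0-4 h after rhamnose induction (AUC4h), with ≥20 reads per time point. It is not background-subtracted; inactive controls average about 0.047.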
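Note: Bxb1 expression induced with 0.2% (w/v) L-rhamnose at OD600 near 0.5, cultures sampled hourly, flipped fraction per protease–substrate barcode pair counted by paired-end Illumina sequencing.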

Row | Variant | area with substrate ENLYCQS | area with substrate ENLYEQS | area with substrate ENLYHQS | area with substrate ENLYIQS | area with substrate ENLYMQS | area with substrate ENLYNQS | area with substrate ENLYPQS | area with substrate ENLYQQS | area with substrate ENLYRQS | area with substrate ENLYSQS | area with substrate ENLYWQS | area with substrate ENLYYQS | area with substrate ENLYDQS | area with substrate ENLYTQS | area with substrate ENLYVQS | area with substrate ENLYGQS | area with substrate ENLYKQS | area with substrate ENLYLQS
1 | S121P | 0.117 | 0.0611 | 0.0716 | 0.141 | 0.0959 | 0.0796 | 0.0612 | 0.0769 | 0.0715 | 0.0891 | 0.117 | 0.0631 | – | – | – | – | – | –
2 | M125E | 0.058 | 0.0622 | 0.0513 | – | – | 0.068 | 0.0748 | 0.0624 | 0.0551 | 0.0676 | 0.0803 | – | 0.0698 | 0.0877 | 0.0799 | – | – | –
3 | E108M | 0.0733 | 0.0728 | 0.0692 | 0.0873 | – | 0.0583 | 0.0754 | 0.0491 | 0.0538 | 0.0671 | – | – | 0.0525 | – | 0.121 | 0.0708 | 0.0576 | –
4 | E25L | 0.0742 | 0.072 | 0.0741 | 0.122 | 0.0907 | 0.0745 | 0.0637 | 0.0551 | 0.055 | 0.0508 | 0.0748 | 0.0672 | 0.0518 | 0.115 | 0.122 | 0.0697 | – | –
5 | E107G | 0.0764 | 0.035 | 0.0735 | – | 0.0911 | 0.0795 | 0.0646 | – | 0.0662 | – | 0.0956 | – | 0.07 | – | 0.067 | 0.0599 | 0.0543 | 0.108
6 | P89H | 0.0669 | 0.0575 | 0.0651 | 0.0865 | 0.0803 | – | 0.0663 | 0.0711 | – | 0.0232 | – | – | 0.0521 | – | – | – | – | –
7 | Q146I | 0.0897 | 0.0725 | 0.0747 | 0.0786 | 0.0851 | – | 0.0772 | – | 0.0706 | – | – | – | 0.0801 | 0.0904 | 0.138 | 0.0728 | 0.0291 | 0.0844
8 | G35W | 0.045 | 0.0324 | – | 0.0447 | 0.0435 | 0.0559 | 0.053 | – | 0.0469 | – | – | – | – | 0.0507 | 0.0459 | 0.0442 | 0.0617 | –
9 | D69T | 0.0744 | 0.0557 | 0.0679 | – | 0.0855 | 0.0688 | 0.0741 | – | – | 0.0783 | 0.0705 | 0.074 | 0.0593 | 0.0591 | 0.117 | 0.0491 | 0.0623 | 0.0652
10 | D69N | 0.0838 | – | 0.067 | – | 0.099 | 0.0659 | – | 0.06 | 0.0723 | 0.0872 | – | – | 0.0205 | 0.0654 | – | 0.0595 | 0.0593 | 0.0829
11 | T115E | 0.0828 | 0.0703 | 0.0603 | 0.14 | – | 0.0707 | 0.0794 | – | 0.0506 | – | – | – | 0.0366 | – | – | – | 0.087 | –
12 | H62S | 0.0806 | 0.0731 | 0.0619 | – | 0.0771 | 0.0895 | 0.0751 | – | 0.045 | 0.0631 | – | 0.0581 | – | – | – | 0.0781 | 0.0832 | –
13 | H62W | 0.0835 | 0.0637 | 0.068 | 0.107 | – | 0.0562 | 0.0406 | 0.0198 | 0.0634 | – | 0.0822 | 0.0748 | – | 0.0718 | 0.0981 | 0.0587 | 0.048 | –
14 | T23V | 0.0681 | 0.0561 | 0.0799 | 0.144 | 0.0983 | 0.0793 | 0.0657 | – | – | 0.0698 | 0.082 | 0.068 | 0.0648 | 0.108 | 0.14 | 0.0571 | 0.0693 | –
15 | N13Y | 0.0811 | 0.0758 | 0.0444 | 0.137 | 0.0628 | – | 0.0788 | – | 0.0737 | 0.0746 | 0.0565 | 0.0638 | 0.0366 | – | – | 0.0604 | 0.08 | 0.0744
16 | R160P | 0.062 | 0.0522 | 0.0861 | 0.0898 | 0.0731 | 0.056 | 0.0632 | 0.0602 | 0.0685 | 0.084 | – | 0.0639 | 0.0712 | – | 0.074 | 0.0609 | 0.0318 | –
17 | L112E | 0.0617 | 0.0537 | 0.0613 | – | 0.0406 | 0.059 | 0.0653 | 0.0423 | 0.0646 | 0.0566 | 0.082 | 0.0649 | 0.0553 | – | 0.0931 | 0.0571 | – | 0.0673
18 | Q59F | 0.0801 | 0.0682 | 0.0702 | 0.107 | 0.0808 | 0.0548 | 0.0721 | 0.0582 | 0.0583 | 0.0659 | – | 0.0811 | 0.0713 | 0.0716 | – | – | 0.085 | –
19 | S124I | 0.0869 | 0.066 | 0.0664 | 0.101 | – | 0.0675 | 0.0735 | 0.0598 | 0.0852 | – | 0.0852 | – | – | 0.107 | 0.0495 | 0.0714 | – | –
20 | S124A | 0.0895 | 0.0645 | – | 0.114 | 0.0838 | 0.0571 | 0.0579 | 0.0804 | 0.0429 | – | – | 0.0851 | – | – | – | 0.0443 | 0.0593 | 0.0812
21 | D91W | 0.0865 | 0.0673 | – | – | 0.0819 | 0.0696 | 0.068 | – | 0.0641 | 0.0811 | 0.0839 | 0.08 | 0.0616 | – | 0.0798 | 0.0657 | 0.058 | –
22 | G63H | 0.0846 | 0.0553 | 0.0709 | 0.131 | 0.0744 | 0.0655 | 0.0598 | – | 0.0602 | – | – | 0.0597 | 0.062 | 0.0756 | – | 0.0697 | 0.0916 | –
23 | S18W | 0.0752 | 0.0662 | 0.0797 | 0.0839 | – | – | 0.0827 | 0.0531 | 0.0643 | – | 0.0776 | – | – | – | 0.0871 | 0.0549 | 0.0632 | –
24 | F92Y | 0.0811 | 0.0656 | 0.0535 | – | 0.0615 | 0.0823 | 0.0587 | 0.0653 | – | – | 0.081 | – | – | – | 0.136 | 0.0702 | – | 0.0804
25 | H21L | 0.0829 | 0.0617 | 0.0793 | 0.0882 | 0.0957 | 0.051 | 0.0616 | – | – | – | – | – | 0.0407 | – | – | 0.0613 | 0.0698 | –
26 | T129F | 0.087 | 0.0732 | 0.0663 | – | – | 0.0647 | – | 0.0701 | 0.0575 | 0.055 | 0.0693 | – | – | – | 0.0756 | – | 0.0675 | –
27 | L156G | 0.0787 | 0.0585 | 0.0579 | – | – | 0.0716 | 0.0598 | 0.0526 | – | 0.049 | 0.0892 | – | 0.0489 | 0.055 | 0.0555 | 0.042 | 0.058 | 0.0643
28 | W141C | 0.0638 | 0.0675 | 0.0609 | 0.0616 | 0.0591 | 0.0588 | 0.0615 | – | 0.0539 | – | 0.0436 | – | 0.0739 | – | 0.0736 | 0.056 | 0.0315 | –
